Laboratory results taken from the supplement of paper PMC6135742.
Structures can show the parent of a compound that is named as a salt. ± gives the standard deviation of the averaged measurements. Whole data set: some 2,600 compounds, median “total cell number (DAPI+ nuclei) relative to DMSO vehicle control” near -1.4, cut for the lowest 2% near -23. The list shows a part of the results.

system: jimpy (Plp1 jimpy) mouse iPSC-derived oligodendrocyte progenitor cells; test: total cell number (DAPI+ nuclei) relative to DMSO vehicle control (SDs above negative control mean); higher = more surviving cells; details: 10 µM; 3 days
Procedure: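 Primary phenotypic screen of >3,000 bioactive compounds (Selleck L1700 and Sigma LO1280 libraries) at a single dose of 10 µM. Compounds were added to jimpy (Plp1 mutant) mouse iPSC-derived OPCs at the start of thyroid hormone-induced oligodendrocyte differentiation, one well per compound in 384-well plates. After 3 days cells were stained for MBP, Sox10 and DAPI and imaged with an Operetta system. MBP+ oligodendrocyte number and total cell number were expressed as the number of SDs above the mean of the DMSO negative control on the same plate (n=16 control wells per plate). Hits were defined as >=4 SD for oligodendrocytes and >=2 SD for total cells.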

Row | SMILES | total cell number
1 | C=C(C)[C@@H]1CC=C(C(=O)O)CC1 [(-)-Perillic acid] | -1.68
2 | Oc1c2ccccc2c2c3c(cccc13)N=N2 | -6.28 ± 3.6
3 | Cc1nc(NC(=O)N2CCC[C@H]2C(N)=O)sc1-c1ccnc(C(C)(C)C(F)(F)F)c1 | -10.3
4 | O=S(=O)(O)CCS [Mesna] | -2.3
5 | CCCCCCCCCCC/C=C\C(C)(C)/C=C\CCCC(=O)O [7,7-Dimethyl-(5Z,8Z)-eicosadienoic acid] | 0.0609
6 | CN(C)C1CCN(C(=O)c2ccc(NC(=O)Nc3ccc(-c4nc(N5CCOCC5)nc(N5CCOCC5)n4)cc3)cc2)CC1 | -10.8
7 | C[C@@H]1O[C@@H](O[C@H]2[C@H](Oc3cc(O)c(C(=O)CCc4ccc(O)cc4)c(O)c3)O[C@H](CO)[C@@H](O)[C@@H]2O)[C@H](O)[C@H](O)[C@H]1O [Naringin Dihydrochalcone] | -0.984
8 | CCCCNC(=O)NS(=O)(=O)c1ccc(C)cc1 [Tolbutamide] | -0.0359 ± 1.1
9 | CCCS(=O)(=O)Nc1ccc(F)c(C(=O)c2c[nH]c3ncc(-c4ccc(Cl)cc4)cc23)c1F [Vemurafenib (PLX4032, RG7204)] | 3.65
10 | O=C(Nc1c(Cl)cncc1Cl)c1ccc(OC(F)F)c(OCC2CC2)c1 [Roflumilast] | -1.42
11 | CCOC(=O)OC(C)OC1=C(C(=O)Nc2ccccn2)N(C)S(=O)(=O)c2ccccc21 (centres undefined) [Ampiroxicam] | -0.95
12 | CC(=O)N[C@H]1[C@H]([C@H](O)[C@H](O)CO)OC(C(=O)O)=C[C@@H]1NC(=N)N [Zanamivir] | -0.366 ± 1.4
13 | CCC(=O)O[C@]1(C(=O)CCl)[C@@H](C)C[C@H]2[C@@H]3C[C@H](F)C4=CC(=O)C=C[C@]4(C)[C@@]3(F)[C@@H](O)C[C@@]21C [Halobetasol Propionate] | 10.4
14 | CN(C)Cc1cccc(N/C(=C2\C(=O)Nc3cc(C(N)=O)ccc32)c2ccccc2)c1 | -14.3
15 | CCN1CC(CCN2CCOCC2)C(c2ccccc2)(c2ccccc2)C1=O (centres undefined) [Doxapram HCl] | 2
16 | CC(=O)OCC(=O)[C@@]12N=C(C)O[C@@H]1C[C@H]1[C@@H]3CCC4=CC(=O)C=C[C@]4(C)[C@H]3[C@@H](O)C[C@@]12C [Deflazacort] | 3.88
17 | C[C@@H](CN1CC(=O)NC(=O)C1)N1CC(=O)NC(=O)C1 [Dexrazoxane HCl (ICRF-187, ADR-529)] | -11.9
18 | Cc1nc2n(c(=O)c1CCN1CCC(c3noc4cc(F)ccc34)CC1)CCCC2 [Risperidone] | -2.69
19 | CNCCC(Oc1ccc(C(F)(F)F)cc1)c1ccccc1 (centres undefined) [Fluoxetine hydrochloride] | -7.96
20 | CNCCC(Oc1ccc(C(F)(F)F)cc1)c1ccccc1 (centres undefined) [Fluoxetine HCl] | -16.5
21 | N=C(N)NCCC[C@H](N)C(=O)O [L-Arginine] | -1.54
22 | COc1cc(C(=O)NS(=O)(=O)c2ccccc2C)ccc1Cc1cn(C)c2ccc(NC(=O)OC3CCCC3)cc12 [Zafirlukast] | 0.455
23 | Cc1cc(C2CCCCC2)n(O)c(=O)c1 [Ciclopirox] | -10.9
24 | Cc1cc(C2CCCCC2)n(O)c(=O)c1 [Ciclopirox ethanolamine] | -8.93
25 | CC1=C(C(=O)OC(C)C)C(c2cccc([N+](=O)[O-])c2)C(C(=O)OC2CN(C(c3ccccc3)c3ccccc3)C2)=C(N)N1 (centres undefined) [Azelnidipine] | -12.3

Row | SMILES | total cell number
26 | CCc1cncnc1N1CCN(Cc2nc3ccc(C(F)(F)F)cc3[nH]2)CC1 | -0.485
27 | NC(=S)c1ccc[n+]([C@@H]2O[C@@H](COP(=O)([O-])OP(=O)(O)OC[C@H]3O[C@@H](n4cnc5c(N)ncnc54)C(OP(=O)(O)O)[C@H]3O)C(O)C2O)c1 (some centres undefined) [Thio-NADP sodium] | -1.17
28 | NS(=O)(=O)c1cc(C(=O)O)c(NCc2ccco2)cc1Cl [Furosemide] | -1.36 ± 2.3
29 | O=C(O)c1cc(=O)c2ccccc2o1 [Chromocarb] | 0.486
30 | CCOc1cc([C@@H](CS(C)(=O)=O)N2C(=O)c3cccc(NC(C)=O)c3C2=O)ccc1OC | -1.74
31 | CCOC(=O)[C@H](CCc1ccccc1)N[C@@H](C)C(=O)N1[C@H](C(=O)O)C[C@@H]2CCC[C@@H]21 [Ramipril] | 0.384
32 | NC(=O)c1ncn([C@@H]2O[C@H](CO)[C@@H](O)[C@H]2O)n1 [Ribavirin] | -1.75 ± 1.2
33 | CC(C)COCC(CN(Cc1ccccc1)c1ccccc1)N1CCCC1 (centres undefined) [Bepridil hydrochloride] | -1.61
34 | CNC(=O)c1ccc(-c2cnc3ncc(Cc4ccc5ncccc5c4)n3n2)cc1F | -5.79
35 | Cn1c(=O)c2[nH]c(C3CCCC3)nc2n(C)c1=O [8-Cyclopentyl-1,3-dimethylxanthine] | -2.36
36 | Cc1ccc(S(=O)(=O)n2c(N)nc3ccccc32)cc1 [ML130 (Nodinitib-1)] | -0.632
37 | COc1ccc(-c2nc3cc(C4=NNC(=O)CC4C)ccc3[nH]2)cc1 (centres undefined) [Pimobendan] | 1.13
38 | NCC(=O)Nc1ccc(-n2nc(C(F)(F)F)cc2-c2ccc3c(ccc4ccccc43)c2)cc1 | -26.5
39 | COc1cc2ncnc(Oc3cccc(NC(=O)Nc4cc(C(C)(C)C(F)(F)F)on4)c3)c2cc1OC | -0.0576
40 | O=C(COc1ccc(Cl)cc1)NC1CCC(NC(=O)COc2ccc(Cl)cc2)CC1 (centres undefined) | -1.54
41 | O=c1c(O)c(-c2ccc(O)c(O)c2)oc2cc(O)ccc12 [Fisetin] | -5.2
42 | CNS(=O)(=O)Cc1ccc2[nH]cc(CCN(C)C)c2c1 [Sumatriptan Succinate] | 1.76
43 | CN[C@H](CC(C)C)C(=O)N[C@H]1C(=O)N[C@@H](CC(N)=O)C(=O)N[C@H]2C(=O)N[C@H]3C(=O)N[C@H](C(=O)N[C@H](C(=O)O)c4cc(O)cc(O)c4-c4cc3ccc4O)[C@H](O)c3ccc(c(Cl)c3)Oc3cc2cc(c3O[C@@H]2O[C@H](CO)[C@@H](O)[C@H](O)[C@H]2O[C@H]2C[C@](C)(N)[C@H](O)[C@H](C)O2)Oc2ccc(cc2Cl)[C@H]1O [Vancomycin hydrochloride from Streptomyces orientalis] | -1.32
44 | NS(=O)(=O)c1cc2c(cc1Cl)N=CNS2(=O)=O [Chlorothiazide] | 0.468 ± 1.3
45 | COc1ccc(-c2cnc3c(-c4cccc5ncccc45)cnn3c2)cc1 | -5.27
46 | Nc1ccc(-c2ccc3ccccc3n2)cc1 [BF-170 hydrochloride] | -1.72
47 | CC[C@H]1OC(=O)[C@H](C)[C@@H](O[C@H]2C[C@@](C)(OC)[C@@H](O)[C@H](C)O2)[C@H](C)[C@@H](O[C@@H]2O[C@H](C)C[C@H](N(C)C)[C@H]2O)[C@](C)(OC)C[C@@H](C)C(=O)[C@H](C)[C@@H](O)[C@]1(C)O [Clarithromycin] | -2.62
48 | O=[N+]([O-])c1ccc2c(c1)S(=O)(=O)C=C2 [Stattic] | -13.1 ± 3.5
49 | O=C(Nc1nc2ccccc2n1CCN1CCOCC1)c1cccc([N+](=O)[O-])c1 [IRAK-1/4 Inhibitor I] | -0.22
50 | CCCCC1=NC2(CCCC2)C(=O)N1Cc1ccc(-c2ccccc2-c2nnn[nH]2)cc1 [Irbesartan] | -0.973

Row | SMILES | total cell number
51 | NC(=O)Cc1cccc(C(=O)c2ccccc2)c1N [Nepafenac] | 0.954
52 | C[C@H]1COC2=C1C(=O)C(=O)c1c2ccc2c1CCCC2(C)C [Cryptotanshinone] | -0.222
53 | CC(=O)SCC[N+](C)(C)C [Acetylthiocholine chloride] | -0.626
54 | CN(C)CC[C@H](CSc1ccccc1)Nc1ccc(S(=O)(=O)NC(=O)c2ccc(N3CCN(Cc4ccccc4-c4ccc(Cl)cc4)CC3)cc2)cc1[N+](=O)[O-] | -23.1
55 | NC(N)=N/N=C/c1ccccc1Cl [Sephin-1] | -3.98
56 | CN(C)C(=O)COC(=O)Cc1ccc(OC(=O)c2ccc(NC(=N)N)cc2)cc1 [Camostat Mesilate] | -0.216
57 | CC(C)NCC(O)c1ccc(NS(C)(=O)=O)cc1 (racemic) [Sotalol] | -0.808
58 | CC(C)NCC(O)c1ccc(NS(C)(=O)=O)cc1 (racemic) [(±)-Sotalol hydrochloride] | -1.64
59 | N=C(N)NC(=O)c1nc(Cl)c(N)nc1N [Amiloride hydrochloride] | -1.83
60 | N=C(N)NC(=O)c1nc(Cl)c(N)nc1N [Amiloride HCl] | -0.152
61 | COc1cccc(OC)c1OCCNCC1COc2ccccc2O1 (centres undefined) [WB-4101 hydrochloride] | 0.524
62 | O=C1NCN(c2ccccc2)C12CCN(CCCC(c1ccc(F)cc1)c1ccc(F)cc1)CC2 [Fluspirilene] | -7.98
63 | Nc1ccccc1NC(=O)c1ccc(CNC(=O)OCc2cccnc2)cc1 [Entinostat (MS-275)] | -12.6
64 | CCCCOc1c(C(=O)c2c(F)cc(C)cc2F)c[nH]c2nncc1-2 | 0.134
65 | N#CC(=C(/N)Sc1ccccc1N)/C(C#N)=C(/N)Sc1ccccc1N | -4.1
66 | NS(=O)(=O)c1cccc2c1c([N+](=O)[O-])cc1nc(O)c(O)nc12 [NBQX disodium] | -1.95
67 | NC(N)=NCc1cccc(I)c1 [m-Iodobenzylguanidine hemisulfate] | 7.97
68 | C[C@@H](Oc1cc(-n2cnc3ccc(CN4CCN(C)CC4)cc32)sc1C(N)=O)c1ccccc1C(F)(F)F | -14.7
69 | COc1ccc(S(=O)(=O)Nc2nc(-c3cccc([N+](=O)[O-])c3)cs2)cc1OC | -0.431
70 | CNCC[C@H](Oc1cccc2ccccc12)c1cccs1 [Duloxetine HCl] | -16
71 | CC1(COc2ccc3c(c2)ncn3-c2ccc3cccc(N4CCC(N)CC4)c3n2)COC1 | -12.2
72 | COc1cc(Cc2cnc(N)nc2N)cc(OC)c1OC [Trimethoprim] | -0.718 ± 0.086
73 | NC(=O)C(=O)O [Sodium Oxamate] | -2.27
74 | COc1cc2c(cc1OC)CN(CCc1ccc(NC(=O)c3cc(OC)c(OC)cc3NC(=O)c3cnc4ccccc4c3)cc1)CC2 [Tariquidar] | -7
